Reference: a collection of fitness landscapes (doi:10.1016/j.celrep.2020.107928)
Over roughly 81,000 sequences, “one-hybrid fitness for binding NBS DNA” has its median near -0.1; the highest 2% begin near 0.36. This is one part of the list.

B1: Caulobacter ParB omega fusion; a variant is named by its letters at X, in order, B8GW30 (parent)
chain: MESVVVGEPGMSEGRRGLGRGLSALLGEVDAAPAQAPGEQLGGSREAPIEILQRNPDQPRRTFREEDLEDLSNSIREKGVLQPILVRPSPDTAGEYQIVAGERAWRAAQRAGLKTVPIMVRELDDLAVLEIGIIENVQRADLNVLEEALSYKVLMEKFERTQENIAQTIGKSXSHVANXMRLLXLPDEVQSYLVSGELTAXHARAIAAAADPVALAKQIIEGGLSVRETEALARKAPNLSAGKSKGGRPPRVKDTDTQALESDLSSVLGLDVSIDHRGSTGTLTITYATLEQLDDLCNRLTRGI

Variants of: B1
Test: one-hybrid fitness for binding NBS DNA (the Noc-binding site; scaled: cognate 1, non-cognate 0); higher = stronger binding
Settings: with NBS DNA site
Method in brief: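 Caulobacter ParB libraries with four specificity codons randomised were screened by bacterial one-hybrid selection in the E. coli USO strain, using a HIS3 reporter whose site lies 19 bp from the promoter. Selection ran for 48 hours at 37°C on M9 lacking histidine, with 0.1 mM IPTG and 5 mM 3-AT. Plasmids were Illumina-sequenced before and after selection, three replicate libraries were pooled, and variants with under 10 reads were dropped. Fitness is the log change in each variant's read ratio to wild type, rescaled against the cognate and non-cognate sites.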

Variant	one-hybrid fitness for binding NBS DNA
INIE	≤ 0.2
KTYT	≤ 0.2
DQAS	≤ 0.2
KKTF	≤ 0.2
LNFG	≤ 0.2
TEAR	≤ 0.2
TSLW	≤ 0.2
EWDK	≤ 0.2
MSQT	≤ 0.2
LILR	≤ 0.2
SRKN	≤ 0.2
VCYG	≤ 0.2
TNVS	≤ 0.2
GTNP	≤ 0.2
VLHG	≤ 0.2
PMYR	≤ 0.2
RTQN	≤ 0.2
EFAV	≤ 0.2
VYLC	≤ 0.2
TGWR	≤ 0.2
ESDL	≤ 0.2
GDYY	≤ 0.2
YTCA	≤ 0.2
WKNT	≤ 0.2

Variant	one-hybrid fitness for binding NBS DNA
PYVR	≤ 0.2
PPVS	≤ 0.2
APTM	≤ 0.2
QPYS	≤ 0.2
FADW	≤ 0.2
AIQF	≤ 0.2
GSDA	≤ 0.2
KHFR	≤ 0.2
TCPR	≤ 0.2
ETEM	≤ 0.2
NFYR	≤ 0.2
RKTA	0.315
YSKV	≤ 0.2
FMMS	≤ 0.2
MVTR	≤ 0.2
LTHY	≤ 0.2
QWMW	≤ 0.2
RYKY	0.306
CLYR	≤ 0.2
PRLI	≤ 0.2
RGET	≤ 0.2
LKTI	≤ 0.2
FSLG	≤ 0.2
CRSS	≤ 0.2

Variant	one-hybrid fitness for binding NBS DNA
NDSC	≤ 0.2
TIQD	≤ 0.2
NNEG	≤ 0.2
NISG	≤ 0.2
CKWS	≤ 0.2
RHPV	≤ 0.2
PAGV	≤ 0.2
YYPK	≤ 0.2
RFFR	≤ 0.2
FITR	≤ 0.2
CLSL	≤ 0.2
HRHV	≤ 0.2
LEQP	≤ 0.2
WAPA	≤ 0.2
EYYT	≤ 0.2
RDVL	≤ 0.2
YRHR	≤ 0.2
HQRR	≤ 0.2
FSNC	≤ 0.2
ASDC	≤ 0.2
KRRA	0.524
IRPW	≤ 0.2
IRTW	≤ 0.2
HGPR	≤ 0.2

Variant	one-hybrid fitness for binding NBS DNA
LPLV	≤ 0.2
STFQ	≤ 0.2
QPFC	≤ 0.2
RATS	0.433
RFYP	≤ 0.2
DSLS	≤ 0.2
RGVQ	≤ 0.2
SDCT	≤ 0.2
NKPQ	≤ 0.2
WSTN	≤ 0.2
NRGS	≤ 0.2
KSCS	≤ 0.2
KAYS	≤ 0.2
VDVY	≤ 0.2
GDYN	≤ 0.2
CSMC	≤ 0.2
CSGC	≤ 0.2
RQWF	≤ 0.2
RNDC	≤ 0.2
QQLD	≤ 0.2
KFQV	≤ 0.2
HPAL	≤ 0.2
ELGR	≤ 0.2
SFLR	≤ 0.2

Variant	one-hybrid fitness for binding NBS DNA
PRPF	≤ 0.2
FFDS	≤ 0.2
TQNG	≤ 0.2
WNRG	≤ 0.2
TGAM	≤ 0.2
CLFV	≤ 0.2
IVCG	≤ 0.2
LSTT	≤ 0.2
LTCP	≤ 0.2
TVNW	≤ 0.2
YYCS	≤ 0.2
MRFC	≤ 0.2
PDWE	≤ 0.2
SPQS	≤ 0.2
VPTR	≤ 0.2
PWVT	≤ 0.2
IDTC	≤ 0.2
VNTH	≤ 0.2
ANCC	≤ 0.2
LWQE	≤ 0.2
RFER	≤ 0.2
AVLW	≤ 0.2
RHYS	0.376
GKQV	≤ 0.2

Variant	one-hybrid fitness for binding NBS DNA
QNLQ	≤ 0.2
TSMA	≤ 0.2
QCEW	≤ 0.2
WPSF	≤ 0.2
WAYS	≤ 0.2
YVER	≤ 0.2
SGCI	≤ 0.2
HPTN	≤ 0.2
QCFD	≤ 0.2
TQHP	≤ 0.2
FRRH	≤ 0.2
NETN	≤ 0.2
PAYI	≤ 0.2
KVKC	≤ 0.2
SNIN	≤ 0.2
NFYF	≤ 0.2
HSTI	≤ 0.2
RGPW	≤ 0.2
HTRI	≤ 0.2
EMPG	≤ 0.2
TLTF	≤ 0.2
RKMQ	≤ 0.2
ATTI	≤ 0.2
SQFS	≤ 0.2

Variant	one-hybrid fitness for binding NBS DNA
DAHP	≤ 0.2
TCTE	≤ 0.2
RCCP	≤ 0.2
AARC	≤ 0.2
YARR	≤ 0.2
CHLE	≤ 0.2
RSNG	≤ 0.2
RSFY	≤ 0.2
RAVK	≤ 0.2
MCGR	≤ 0.2
WYGL	≤ 0.2
INAK	≤ 0.2
ASGA	≤ 0.2
WNTP	≤ 0.2
SYPC	≤ 0.2
QKLK	≤ 0.2
GNND	≤ 0.2
WKNN	≤ 0.2
IMSR	≤ 0.2
RDRP	≤ 0.2
EDYP	≤ 0.2
ACLF	≤ 0.2
HLRR	≤ 0.2
ISIF	≤ 0.2

Variant	one-hybrid fitness for binding NBS DNA
FPRF	≤ 0.2
MSIF	≤ 0.2
VGES	≤ 0.2
RWCR	≤ 0.2
NIMD	≤ 0.2
LILE	≤ 0.2
DVTW	≤ 0.2
DPLN	≤ 0.2
ITWR	≤ 0.2
MTNP	≤ 0.2
SAHI	≤ 0.2
SFPY	≤ 0.2
ATLY	≤ 0.2
QTRV	0.576
RMPK	≤ 0.2
ASLS	≤ 0.2
IAHC	≤ 0.2
AMKC	≤ 0.2
VICL	≤ 0.2
RSLH	≤ 0.2
IMSF	≤ 0.2
WFNR	≤ 0.2
WNGF	≤ 0.2
QPCT	≤ 0.2

Variant	one-hybrid fitness for binding NBS DNA
GPPF	≤ 0.2
TSQC	≤ 0.2
TVQM	≤ 0.2
RPEV	≤ 0.2
SNHL	≤ 0.2
YNDR	≤ 0.2
IFHG	≤ 0.2
TAGQ	≤ 0.2
PMTY	≤ 0.2
ACTC	≤ 0.2
TLFC	≤ 0.2
EELK	≤ 0.2
CSPN	≤ 0.2
RPWR	≤ 0.2
WATS	≤ 0.2
SDTL	≤ 0.2
CVQR	≤ 0.2
IFYT	≤ 0.2
WTTQ	≤ 0.2
WAVM	≤ 0.2
EWRC	≤ 0.2
WADF	≤ 0.2
CGTG	≤ 0.2
IRVE	≤ 0.2

Variant	one-hybrid fitness for binding NBS DNA
PMPL	≤ 0.2
KRLQ	≤ 0.2
TQGG	≤ 0.2
IMNT	≤ 0.2
CPNT	≤ 0.2
HGCK	≤ 0.2
HWVP	≤ 0.2
YKRG	≤ 0.2
PSHC	≤ 0.2
RIVL	≤ 0.2
WALG	≤ 0.2
LSHQ	≤ 0.2
GRFP	≤ 0.2
YELG	≤ 0.2
DHTI	≤ 0.2
REYR	≤ 0.2
LRSQ	≤ 0.2
NPPH	≤ 0.2
LIPA	≤ 0.2
CLWG	≤ 0.2
RMAR	0.46
GMKT	≤ 0.2
HQRS	≤ 0.2
APTK	≤ 0.2

Variant	one-hybrid fitness for binding NBS DNA
GLNK	≤ 0.2
RPRV	≤ 0.2
DKNR	≤ 0.2
HAVT	≤ 0.2
CIWG	≤ 0.2
FQST	≤ 0.2
DWRS	≤ 0.2
DAAT	≤ 0.2
VKNL	≤ 0.2
CSPL	≤ 0.2
QCAC	≤ 0.2
YRHL	≤ 0.2
NSSP	≤ 0.2
RKIA	≤ 0.2
RLTT	0.454
ACGN	≤ 0.2
STTI	≤ 0.2
WRHA	≤ 0.2
AYTM	≤ 0.2
ASDG	≤ 0.2
GQPP	≤ 0.2
FWRC	≤ 0.2
VEVN	≤ 0.2
HPDY	≤ 0.2

Variant	one-hybrid fitness for binding NBS DNA
VISD	≤ 0.2
IGNS	≤ 0.2
HLNF	≤ 0.2
LPAY	≤ 0.2
QINM	≤ 0.2
NGHL	≤ 0.2
TAIN	≤ 0.2
MCKT	≤ 0.2
EVMT	≤ 0.2
RLPQ	≤ 0.2
YVDY	≤ 0.2
NYYL	≤ 0.2
ACPS	≤ 0.2
FNPD	≤ 0.2
VCQM	≤ 0.2
SKGT	≤ 0.2
PTLP	≤ 0.2
CMQI	≤ 0.2
MAGS	≤ 0.2
NSAT	≤ 0.2
GASW	≤ 0.2
QHQK	≤ 0.2
AMRS	≤ 0.2
WEWS	≤ 0.2

Variant	one-hybrid fitness for binding NBS DNA
LNKA	≤ 0.2
MDLY	≤ 0.2
WNTR	≤ 0.2
VTLT	≤ 0.2
SYKP	≤ 0.2
TYVS	≤ 0.2
WHLL	≤ 0.2
WTTK	≤ 0.2
QCKG	0.377
NYSR	≤ 0.2
AGLV	≤ 0.2
SAEV	≤ 0.2
HSMG	≤ 0.2
QAYI	≤ 0.2
AKNF	≤ 0.2
PNQN	≤ 0.2
FKQG	≤ 0.2
LYKM	≤ 0.2
